Source: PubChem BioAssay (NCATS)
This list was built around the results that the source calls inconclusive (neither active nor inactive); the mix of calls is not that of the screen. For some of these results: No potency is given beside an inconclusive call; the fits are too rough. The source made the active and inactive calls. Unless noted, calls come from the whole dose curve; as a rule, active = well fitted curve in the direction sought with a large enough effect; inconclusive = small, poorly fitted or top-dose-only effect, or another doubt; inactive = no such curve, though single readings can be large; an effect the other way counts as inactive or inconclusive.

What was measured:
[1] = target: Cellular tumor antigen p53 (Homo sapiens) (UniProt P04637); assay: Primary qHTS for small molecule compounds that upregulate eGFP-tagged delta133p53alpha (in C-terminal) cells. (AID 2060324); note: potency is the fitted concentration of half-maximal effect
Sequence of UniProt P04637 (P04637 whole entry, looked up): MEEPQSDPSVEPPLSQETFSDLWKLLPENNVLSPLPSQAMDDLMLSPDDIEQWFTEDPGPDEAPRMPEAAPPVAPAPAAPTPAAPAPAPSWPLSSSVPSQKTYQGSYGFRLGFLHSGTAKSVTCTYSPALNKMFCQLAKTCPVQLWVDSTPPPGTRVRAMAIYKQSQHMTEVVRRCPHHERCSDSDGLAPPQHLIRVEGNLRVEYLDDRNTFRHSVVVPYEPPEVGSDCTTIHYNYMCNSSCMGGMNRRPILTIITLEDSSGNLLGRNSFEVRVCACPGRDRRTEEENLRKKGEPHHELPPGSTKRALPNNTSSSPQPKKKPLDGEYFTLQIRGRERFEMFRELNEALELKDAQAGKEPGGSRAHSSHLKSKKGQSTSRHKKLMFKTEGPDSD
Method in brief: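 NCI-H358 cells pre-induced 24 h with 100 ng/ml doxycycline to express delta133p53alpha-eGFP, then dosed in doxycycline-free medium for 24 h at 37C. Fixed, Hoechst-stained; GFP intensity by laser scanning cytometry, normalized to DMSO wells.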

[2] = target: Retinaldehyde dehydrogenase 3 (Homo sapiens) (UniProt P47895); assay: qHTS for Inhibitors of the Aldehyde Dehydrogenase Family (ALDH1A3) Validation screen (AID 2061312); settings: ALDH1A3 enzyme inhibition qHTS validation, fluorescence; activity change, negative = inhibition: at 84.7 µM (top of the series); note: nearly all actives have a fitted effect of over 45% in size; note: potency is the fitted concentration of half-maximal effect
[3] = target: Aldehyde dehydrogenase, mitochondrial (Homo sapiens) (UniProt P05091); assay: qHTS for Inhibitors of the Aldehyde Dehydrogenase Family (ALDH2) Validation screens (AID 2061302; active = well fitted inhibition curve with a large enough effect; inconclusive = small, poorly fitted or top-dose-only effect; title and protocol of this record describe different tests; note: potency is the fitted concentration of half-maximal effect)
[4] = BET inhibitor-based combinations targeting novel dependencies in MECOM-rearranged (r) AML: OCI-AML3 cell line (AID 2202232); settings: CellTiter-Glo luminescence, 48 h; Potency: OCI-AML3 viability; viability (% of control): at 46 µM (top of the series); note: potency is the fitted concentration of half-maximal effect; nearly all actives have a fitted effect of over 35% in size
Method in brief: (§1)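 AML cell lines seeded at 500 cells/well, treated with 11-point dose curves for 48 h. Viability by CellTiter-Glo luminescence, normalised to DMSO and empty wells; activity expressed as AUC and per-cell-line Z-transformed AUC.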

[5] = BET inhibitor-based combinations targeting novel dependencies in MECOM-rearranged (r) AML: HNT-34 cell line (AID 2202234); note: nearly all actives have a fitted effect of over 35% in size
Method in brief: (§2)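 Cells at 500/well were exposed for 48 hr to MIPE v5.0 drugs as 11-point dose curves. Viability was read by CellTiter-Glo luminescence and normalized to DMSO and empty-well controls. Activity was expressed as AUC and per-cell-line Z-AUC.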

[6] = BET inhibitor-based combinations targeting novel dependencies in MECOM-rearranged (r) AML: AML-191 cell line (AID 2202236; note: potency is the fitted concentration of half-maximal effect; nearly all actives have a fitted effect of over 35% in size)
Method in brief: as §1

[7] = target: Aldehyde dehydrogenase, mitochondrial (Homo sapiens) (UniProt P05091); assay: qHTS for Inhibitors of the Aldehyde Dehydrogenase Family (ALDH2) Confirmatory screens (AID 2061303; active = well fitted inhibition curve with a large enough effect; inconclusive = small, poorly fitted or top-dose-only effect; inactive = no such curve, though single readings can be large or run the other way; title and protocol of this record describe different tests; note: nearly all actives have a fitted effect of over 45% in size; note: potency is the fitted concentration of half-maximal effect); settings: ALDH inhibition qHTS; activity change, negative = inhibition: at 45.4 µM (top of the series)
[8] = qHTS for Inhibitors of the Aldehyde Dehydrogenase Family (ALDH1A2, ALDH1A3, ALDH2, ALDH3A1) (AID 2061307); settings: ALDH inhibition qHTS; activity change, negative = inhibition: at 50.3 µM (top of the series) unless noted; note: nearly all actives have a fitted effect of over 50% in size; for potency: test system not described further here; potency is the fitted concentration of half-maximal effect
[9] = target: Retinaldehyde dehydrogenase 3 (Homo sapiens) (UniProt P47895); assay: qHTS for Inhibitors of the Aldehyde Dehydrogenase Family (ALDH1A3) Confirmatory screens (AID 2061311); settings: activity change, negative = inhibition: at 46 µM (top of the series); note: nearly all actives have a fitted effect of over 60% in size; note: potency is the fitted concentration of half-maximal effect
[10] = target: Aldehyde dehydrogenase 1A1 (Homo sapiens) (UniProt P00352); assay: qHTS for Inhibitors of the Aldehyde Dehydrogenase Family (ALDH1A1) Confirmatory screens (AID 2061316); settings: activity change, negative = inhibition: at 47.3 µM (top of the series); note: nearly all actives have a fitted effect of over 65% in size; note: potency is the fitted concentration of half-maximal effect
[11] = target: Retinal dehydrogenase 2 (Homo sapiens) (UniProt O94788); assay: qHTS for Inhibitors of the Aldehyde Dehydrogenase Family (ALDH1A2) Confirmation screens (AID 2061314); settings: activity, negative = inhibition: at 45.9 µM (top of the series) unless noted; note: potency is the fitted concentration of half-maximal effect; nearly all actives have a fitted effect of over 65% in size
[12] = BET inhibitor-based combinations targeting novel dependencies in MECOM-rearranged (r) AML: UCSD-AML1 cell line (AID 2202235); settings: UCSD-AML1 AML cells viability, CellTiter-Glo, 48 h; viability (% of control): at 46 µM (top of the series); note: potency is the fitted concentration of half-maximal effect; nearly all actives have a fitted effect of over 40% in size
Method in brief: as §2

[13] = BET inhibitor-based combinations targeting novel dependencies in MECOM-rearranged (r) AML: AML-194 cell line (AID 2202237; note: potency is the fitted concentration of half-maximal effect; nearly all actives have a fitted effect of over 40% in size)
Method in brief: as §1
Tags give direction and shape of the fitted curve.

C=CCn1c(=O)c2c(nc(-c3ccc(S(=O)(=O)O)cc3)n2C)n(C)c1=O
Potency [1]: inactive | Potency [2]: inconclusive [inhibitor, full curve, poor fit]

NC(CO)C(=O)NNCc1ccc(O)c(O)c1O (stereo not given)
Potency [1]: inconclusive [activator, single point] | Potency [3]: inactive | Potency [2]: inconclusive [inhibitor, full curve] | Potency [4]: inconclusive [inhibitor, full curve, poor fit] | Potency [5]: inactive | Potency [6]: inconclusive [inhibitor, partial curve, poor fit]

CN1CCN(CC(=O)N2c3ccccc3C(=O)Nc3cccnc32)CC1
Potency [1]: inactive | Potency [3]: inactive | Potency [7]: inactive | Potency [8]: inactive | Potency [9]: inactive | Potency [2]: inconclusive [inhibitor, full curve] | Potency [10]: inactive

O=C1Cc2c([nH]c3ccc(Br)cc23)-c2ccccc2N1
Potency [1]: inconclusive [activator, single point] | Potency [2]: inconclusive [inhibitor, single point]

CC[n+]1c(/C=C/C=C2/N(C)c3ccccc3C2(C)C)sc2ccccc21
Potency [1]: inconclusive [activator, partial curve] | Potency [3]: inconclusive [inhibitor, partial curve, poor fit] | Potency [7]: inconclusive [inhibitor, partial curve] | Potency [8]: active: 22.5 µM | Potency [9]: active: 12.7 µM | Potency [2]: inconclusive [inhibitor, full curve] | Potency [11]: active: 12.7 µM | Potency [10]: active: 12.7 µM

CN(C)CCCN1c2ccccc2Sc2ccc(C(F)(F)F)cc21
Potency [1]: inconclusive [activator, single point] | Potency [2]: inactive

Cc1ccc(S(=O)(=O)N[C@@H](Cc2ccccc2)C(=O)CCl)cc1
Potency [1]: active: 26.9 µM | Potency [7]: inconclusive [inhibitor, partial curve, poor fit] | Potency [9]: inconclusive [inhibitor, single point] | Potency [2]: inconclusive [inhibitor, partial curve, poor fit] | Potency [12]: inconclusive [inhibitor, single point] | Potency [13]: active: 23.5 µM

Nc1ccc(-c2ccc3ccccc3n2)cc1
Potency [1]: inconclusive [activator, single point] | Potency [3]: inconclusive [inhibitor, single point] | Potency [2]: inconclusive [inhibitor, full curve, poor fit]

COCC(=O)O[C@]1(CCN(C)CCCc2nc3ccccc3[nH]2)CCc2cc(F)ccc2[C@@H]1C(C)C
Potency [1]: inconclusive [activator, partial curve, poor fit] | Potency [8]: inactive | Potency [2]: inconclusive [inhibitor, full curve] | Potency [10]: inactive
